Among all 350,000 compounds or so, about 9,900 (2.8%) were called active. Inconclusive means that the source gave no clear call. Such entries were picked first, then a sample of the others. Calls come from the whole dose curve; as a rule, active = well fitted activation curve with a large enough effect; inconclusive = small, poorly fitted or top-dose-only effect; inactive = no such curve, though single readings can be large or run the other way. No potency is given beside an inconclusive call; the fits are too rough.
Assay: A quantitative high throughput screen for small molecules that induce DNA re-replication in MCF 10a normal breast cells. Note: nearly all actives have a fitted effect of over 50% in size.
Details: MCF 10A DNA re-replication, Hoechst nuclear intensity, 48 h; series mostly up to 46.1 µM
Potency is the fitted concentration of half-maximal effect; tags give direction and shape of the fitted curve.

Row | SMILES | Potency
1 | C=CCSc1nnc(NC(=O)c2ccc(S(=O)(=O)NCC3CCCO3)cc2)s1 (stereo not drawn) | inconclusive [activator, full curve, poor fit]
2 | CC(=O)NCCNc1nc2c(-c3cccc(C)c3)nnn2c2ccccc12 | inconclusive [activator, single point]
3 | CN(Cc1ccccc1)Cc1ccccc1C(O)c1ccccc1 (stereo not drawn) | inconclusive [activator, full curve, poor fit]
4 | Nc1ccc(O)cc1C(=O)OCC(=O)c1ccc(C2CCCCC2)cc1 | active: 23.1 µM
5 | N#Cc1c(N)nc2c(c1-c1ccccc1)CCC2 | inconclusive [activator, single point]
6 | Cc1ccc(NC(=O)CSc2nc3nc(C)c(Br)cc3[nH]2)cc1F | inconclusive [activator, single point]
7 | COc1ccc(/C=C/c2nnc(NC(=O)COc3ccc(C)cc3)s2)cc1 | inconclusive [activator, single point]
8 | O=C(CCS(=O)(=O)c1ccccc1)Nc1ccc(S(=O)(=O)Nc2ncccn2)cc1 | inconclusive [activator, single point]
9 | CCCCOc1ccc(C(=O)N/C(=C/C=C/c2ccccc2)C(=O)N2CCOCC2)cc1 | inconclusive [activator, partial curve]
10 | c1ccc2c(c1)CCN(c1ncnc3c1[nH]c1ccccc13)C2 | inconclusive [activator, partial curve, poor fit]
11 | O=C(CC(Sc1ccc(Br)cc1)C(=O)O)c1ccc(F)cc1 (stereo not drawn) | active: 23.1 µM
12 | O=C(Nc1nccs1)c1c(O)c2c([nH]c1=O)CCCC2 | inactive
13 | COc1ccc(NS(=O)(=O)c2cc(NC(=O)c3cccc(OCc4c(C)noc4C)c3)ccc2OC)cc1 | inactive
14 | CC(=O)N1CC=CC1(CC(C)C)C(=O)NCCN1CCOCC1 (stereo not drawn) | inconclusive [activator, partial curve, poor fit]
15 | c1ccc(OCc2nn3c(Cn4nnc5ccccc54)nnc3s2)cc1 | inactive
16 | O=C1/C(=C/c2ccncc2)Oc2cc(OS(=O)(=O)c3ccccc3)ccc21 | inconclusive [activator, single point]
17 | Cc1ccc(C(=O)NN2C(=O)c3ccc(S(=O)(=O)c4ccc(C(=O)O)cc4)cc3C2=O)cc1 | inactive
18 | CC(C)(C)c1ccc(C(=O)N2CCC(=O)N(C(CO)Cc3ccccc3)CC2)cc1 (stereo not drawn) | inconclusive [activator, single point]
19 | O=S1(=O)N=C(N/N=C/c2ccc(Br)o2)c2ccccc21 | inconclusive [activator, single point]
20 | CN(C(=O)COC(=O)/C=C/c1ccc(F)cc1)c1c(N)n(Cc2ccccc2)c(=O)[nH]c1=O | inactive
21 | O=C(CCCSc1ccc(Cl)cc1)Nc1ccccc1O | inconclusive [activator, single point]
22 | COc1ccc(-c2c(-c3ccccc3OC)sc3ccccc23)cc1 | inconclusive [activator, single point]
23 | OC1(c2ccc(F)cc2)CCN(Cc2cccnc2)CC1 | inconclusive [activator, single point]

Row | SMILES | Potency
24 | O=C(CC(=O)c1ccccc1)CS(=O)(=O)c1ccccc1 | inconclusive [activator, single point]
25 | O=C(NCc1ccc(F)cc1)c1ccc(CS(=O)Cc2ccccc2Cl)o1 (stereo not drawn) | inactive
26 | C/C(=C(/CCO)SSCC1CCCO1)N(C=O)Cc1cnc(C)nc1N (stereo not drawn) | inconclusive [activator, partial curve]
27 | COc1ccc(OC)c(C(=O)N2CCCC(Nc3ccc(F)cc3)C2)c1 (stereo not drawn) | inactive
28 | CCCN1CCN(C2CCCCC2NS(=O)(=O)c2ccccc2)CC1 (stereo not drawn) | inconclusive [activator, full curve, poor fit]
29 | O=C(Cc1ccc(S(=O)(=O)N2CCCCC2)s1)Nc1cccc2ccccc12 | inconclusive [activator, single point]
30 | COc1cccc(-n2cc(C(=O)NC(C)C)c3ccccc3c2=O)c1 | inactive
31 | CCc1ccc(NC(=O)C2CCCN(S(=O)(=O)c3cccs3)C2)cc1 (stereo not drawn) | inconclusive [activator, single point]
32 | COCc1cc(=O)n2[nH]cc(-c3ccsc3)c2n1 | inconclusive [activator, partial curve, poor fit]
33 | CCOC(=O)/C(=C/c1c[nH]c2ccccc12)NC(C)=O | inactive
34 | COc1ccc(N2CCN(C3CCCN(S(=O)(=O)c4ccc(C)cc4C)C3)CC2)cc1 (stereo not drawn) | inconclusive [activator, partial curve, poor fit]
35 | c1ccc(CNCCCn2cnc3c(OCc4ccccc4)ncnc32)cc1 | inconclusive [activator, partial curve, poor fit]
36 | CCOC(=O)C(C)On1c(-c2ccc(Cl)cc2)nc2ccc([N+](=O)[O-])cc21 (stereo not drawn) | inconclusive [activator, single point]
37 | Cc1oc2c(c1C(=O)c1ccccc1)C(=O)C(=O)c1ccccc1-2 | inconclusive [activator, partial curve, poor fit]
38 | CN[C@H](CC(=O)O)C(=O)O | inconclusive [activator, partial curve, poor fit]
39 | CCCn1nnnc1NC(=O)COc1ccc(Br)cc1 | inconclusive [activator, single point]
40 | COc1cc(OC)cc(-c2c(-c3cccs3)c3cc(-c4cnc(OC)nc4)ccc3n2C)c1 | inactive
41 | Cc1cccc(N2CCN(C(=S)c3ccc(-c4ccccc4[N+](=O)[O-])o3)CC2)c1 | inconclusive [activator, full curve, poor fit]
42 | COc1ccc(CCn2c(C)cc(C(=O)CCl)c2C)cc1OC | active: 6.51 µM
43 | CN(CC(=O)Nc1ccccc1Cl)C(=O)COC(=O)C1=COCCO1 | inactive
44 | CC1CC(N(C(=O)c2ccco2)c2ccccc2)c2ccccc2N1C(=O)c1ccco1 (stereo not drawn) | inactive
45 | CC(C)(C)NC(=O)C(c1ccc(-c2ccccc2)cc1)N(C[C@H]1CC[C@@H]([C@@H]2CC[C@H](CO)O2)O1)C(=O)c1cccc(Cl)c1 (stereo partly drawn) | inconclusive [activator, single point]
46 | COc1ccc2nc(N3C(=O)C(O)=C(C(=O)c4ccco4)C3c3ccco3)sc2c1 (stereo not drawn) | inactive

Row | SMILES | Potency
47 | Cc1c(C)n(Cc2ccc(F)cc2)c2ccc(C(=O)N3CCN(c4ccccn4)CC3)cc12 | inconclusive [activator, single point]
48 | COc1ccc(CN2C(=O)CCC2(C)C(=O)NCc2cccnc2)c(OC)c1 (stereo not drawn) | inactive
49 | Cc1cc[n+]2cc(-c3cccc([N+](=O)[O-])c3)c(-c3cccc([N+](=O)[O-])c3)cc2c1 | inactive
50 | CS(=O)(=O)c1ccc(C(=O)OC2CCOC2=O)cc1[N+](=O)[O-] (stereo not drawn) | inconclusive [activator, single point]
51 | O=C(NCCC1CCCCN1S(=O)(=O)c1cccs1)C(=O)Nc1cccc(F)c1 (stereo not drawn) | inconclusive [activator, partial curve]
52 | CCC1Oc2ccccc2N(CC(=O)NCCCN2CCN(Cc3ccccc3)CC2)C1=O (stereo not drawn) | inconclusive [activator, partial curve, poor fit]
53 | CCOC(=O)c1cnc2ccc(Cl)cc2c1Nc1ccc(S(=O)(=O)Nc2ncccn2)cc1 | inconclusive [activator, partial curve, poor fit]
54 | NNc1nc(-c2ccccc2)cc(-c2ccccc2O)n1 | inconclusive [activator, single point]
55 | Cc1ccc(CNC(=O)Nc2ccccc2)c(C)c1 | inactive
56 | CC(Sc1nc2ccccc2n1C)C(=O)NC(c1ccccc1)c1ccccc1 (stereo not drawn) | inconclusive [activator, single point]
57 | Cc1c(C(=O)Nc2cccnc2Cl)oc2ccccc12 | inactive
58 | O=C(NCc1cccnc1)c1cccc(NS(=O)(=O)c2ccc(Br)cc2)c1 | active: 0.651 µM
59 | COc1cc(/C=C(/C#N)c2nc3ccccc3[nH]2)ccc1Oc1ncccc1[N+](=O)[O-] | inconclusive [activator, single point]
60 | O=C(Nc1ccc(Oc2ccccc2)nc1)C1CCCCN1Cc1ccco1 (stereo not drawn) | active: 1.84 µM
61 | COc1ccc(-c2noc(CCC(=O)NCCN3CCN(c4ccccc4F)CC3)n2)cc1 | inconclusive [activator, partial curve, poor fit]
62 | COc1ccc(C(=O)C[n+]2ccccc2C)cc1 | inconclusive [activator, single point]
63 | CCOc1ccccc1C1C(C(=O)OC)=CN(C)C=C1C(=O)OC | active: 14.6 µM
64 | CN(C(=O)c1nn(C)c2c1CS(=O)(=O)c1ccccc1-2)c1cccc(Cl)c1 | inactive
65 | O=c1[nH]cnc2c1ccn2C1OC(CO)C(O)C1O (stereo not drawn) | active: 2.06 µM
66 | CSCC[C@@H](C(=O)NCCCCCCCCCCC(=O)N1CCNCC1)n1cc(CCO)nn1 | inconclusive [activator, partial curve, poor fit]
67 | C[C@@]12CCC=C[C@H]1[C@H](c1ccc3ccccc3c1)N(Cc1ccccc1)C2=O | inconclusive [activator, single point]
68 | COc1cc2c(cc1OC)CN(C(C)C(=O)N1CCc3ccccc31)CC2 (stereo not drawn) | inconclusive [activator, single point]
